From PubChem BioAssay AID1745845 (National Center for Advancing Translational Sciences (NCATS), 2022)
The whole screen tested about 360,000 compounds, of which about 2,600 (0.72%) were called active. The inconclusive results got no clear call from the source; some entries with a clear call stand among them for comparison. The call rests on the fitted dose curve; in most records, active means well fitted inhibition curve with a large enough effect; inconclusive means small, poorly fitted or top-dose-only effect; inactive means no such curve, though single readings can be large or run the other way. A potency beside an inconclusive call is a rough fit, not a confirmed value. More than one record can exist for a structure, and the calls need not agree.

experiment: Primary qHTS for Inhibitors of ATXN expression; conditions: HEK-293 ATXN2-luciferase reporter, luminescence, 24 h; series mostly up to 57 µM; further: nearly all actives have a fitted effect of over 55% in size
Method in brief: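 qHTS (up to 57 uM final) was run with 24 h compound exposure of reporter cells at 37 °C. Each well was multiplexed: SteadyGlo luminescence measured ATXN2-luciferase expression after a fluorogenic Gly-Phe-AFC viability readout (25 uM final).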
Potency means the concentration at half of the fitted maximal effect; tags describe the fitted curve by direction and shape.

Row | Structure (SMILES) | Potency
1 | Cc1ccc2c(c1)nnn2C1CCN(CC(=O)N2CCN(c3ccc(F)cc3)CC2)CC1 | inconclusive: 25.1 µM [inhibitor, single point]
2 | CC(O)=C(C#N)C(=O)Nc1ccc(C(F)(F)F)cc1 | inconclusive: 38.5 µM [inhibitor, single point]
3 | C[C@@H](C(=O)Nc1ccc2ccccc2c1)[C@H]1C[C@]1(C)[C@H](NC(=O)c1cnccn1)c1ccccc1 | inactive
4 | COc1ccc(CNC(=O)c2cccc(S(=O)(=O)N3CCCCC3)c2)cc1OC | inconclusive: 4.47 µM [inhibitor, partial curve, poor fit]
5 | COc1ccc2cc(CN(Cc3ccco3)Cc3nnnn3C3CCCCC3)c(=O)[nH]c2c1 | inconclusive: 31.6 µM [inhibitor, single point]
6 | Cc1ccc(S(=O)(=O)N2CCCc3cc(NS(=O)(=O)c4cccc(Cl)c4)ccc32)cc1 | inconclusive: 22.4 µM [inhibitor, single point]
7 | Cc1nc2c(OCc3ccc(OC(F)F)cc3)cccn2c1N(C)C(=O)CCC1CCCC1 | inconclusive: 28.2 µM [inhibitor, single point]
8 | O=C(NCCN1CCCC1)c1ccccc1Cl | inactive
9 | Cc1ccsc1C(=O)OCC(=O)c1cc(C)n(CC2CCCO2)c1C (stereo not drawn) | inconclusive: 39.8 µM [inhibitor, single point]
10 | c1ccc(CCNc2nc(-c3ccncc3)nc3ccccc23)cc1 | inconclusive: 31.6 µM [inhibitor, partial curve, poor fit]
11 | CC(=O)c1ccc(N2CCN(C(=O)CCC(=O)Nc3ccc4nc(N5CCCCC5)cc(C)c4c3)CC2)cc1 | inconclusive: 39.8 µM [inhibitor, single point]
12 | COc1ccc(-n2c(-c3ccc(Br)cc3)c[n+]3c2CCC3)cc1 | inconclusive: 15.8 µM [inhibitor, partial curve, poor fit]
13 | COc1cccc2cc(C(=O)NCc3ccco3)c(=Nc3ccc(C(=O)O)cc3)oc12 | inconclusive: 15.8 µM [inhibitor, partial curve, poor fit]
14 | COc1cc2c(Nc3ccc(Br)cc3F)ncnc2cc1OCC1CCN(C)CC1 | active: 30.6 µM
15 | Oc1ccc(/C=N/n2c(-c3ccco3)csc2=Nc2cccnc2)c(O)c1 | inconclusive: 22.4 µM [inhibitor, single point]
16 | Cc1cc(F)ccc1-c1cc(C(=O)NCc2ccc(C(F)(F)F)cc2)[nH]n1 | inconclusive: 35.5 µM [inhibitor, single point]
17 | CC(Oc1ccccc1F)C(=O)NNC(=O)CCNC(=O)c1ccco1 (stereo not drawn) | inactive
18 | NC(=O)CC(NC(=O)Cc1ccc(Br)cc1)c1ccc(NC2CCCC2)c([N+](=O)[O-])c1 (stereo not drawn) | active: 8.91 µM
19 | Cc1cc(C)n(Cc2ccc(C(=O)O)cc2)n1 | inactive
20 | O=C(CN1C(=O)COc2ccc(Cl)cc21)Nc1cccc(F)c1 | inconclusive: 28.2 µM [inhibitor, single point]
21 | O=C(CSc1cccc2cccnc12)Nc1ccc(S(=O)(=O)N2CCOCC2)cc1 | active: 12.6 µM

Row | Structure (SMILES) | Potency
22 | COc1ccc2c(c1OC)C(=O)OC2Nc1nc(-c2ccccc2)cs1 (stereo not drawn) | inconclusive: 39.8 µM [inhibitor, single point]
23 | CCCn1c(SCc2nc(-c3ccccc3OCC)no2)nnc1-c1ccc(Cl)cc1 | inconclusive: 39.8 µM [inhibitor, single point]
24 | CCOc1ccccc1C(=O)N(Cc1cc(OC)c(OC)c(OC)c1)c1ccccn1 | inactive
25 | CCC(C(=O)NC1CCCC1)N(Cc1cccs1)C(=O)Cn1nnc(-c2ccc(OC)c(OC)c2)n1 (stereo not drawn) | inactive
26 | Nc1nc2sc3c(c2cc1C(=O)NCC(=O)O)CCCC3 | inconclusive: 22.4 µM [inhibitor, single point]
27 | O=C(CP(=O)(c1ccccc1)c1ccccc1)N/N=C/c1cc(Br)cc(Br)c1O | active: 10 µM
28 | CCN(CC)S(=O)(=O)c1cccc(NC(=O)CSc2nc3ccccc3[nH]2)c1 | inconclusive: 12.6 µM [inhibitor, partial curve, poor fit]
29 | CCc1ccc(OCCNc2cc(N3CCNC(C)C3)ccc2[N+](=O)[O-])cc1 (stereo not drawn) | inconclusive: 22.4 µM [inhibitor, single point]
30 | COc1ccc(C(=O)c2c(C)c3ccccc3n2CC(O)CNC(C)C)cc1 (stereo not drawn) | inconclusive: 15.8 µM [inhibitor, partial curve, poor fit]
31 | O=c1[nH]c(=O)n(-c2ccccc2)c2c1C(C(F)(F)F)(C(F)(F)F)N=C(C1CCCCC1)N2 | inconclusive: 3.36 µM [inhibitor, partial curve]
32 | Clc1cccc(Nc2nc(-c3ccncc3)cs2)c1 | inactive
33 | O=C(CC1CCCCC1)N1CCC(c2nc(-c3ccc(S(=O)(=O)N4CCCC4)cc3)no2)CC1 | inconclusive: 17.8 µM [inhibitor, partial curve]
34 | O=C(Nc1ccc(N2CCOCC2)cc1)c1cn2ccccc2n1 | active: 11.2 µM
35 | COc1ccc(-c2nnnn2-c2ccccc2OC)cc1 | inactive
36 | O=C(c1ccc(Cl)cc1)C(CN1CCCCC1)c1ccccc1 (stereo not drawn) | inconclusive: 22.4 µM [inhibitor, partial curve, poor fit]
37 | CCOC(=O)COc1ccc2c(=O)cc(-c3ccccc3)oc2c1 | inconclusive: 0.0168 µM [inhibitor, full curve, poor fit]
38 | Cc1cc(NC(=O)c2cc(-c3ccncc3)nc3ccccc23)ccc1Br | inconclusive: 37.7 µM [inhibitor, single point]
39 | C[C@@H]1CN([C@@H](C)CO)C(=O)c2cc(NS(=O)(=O)c3cccs3)ccc2O[C@H]1CN(C)Cc1ccc(C(F)(F)F)cc1 | inconclusive: 31.6 µM [inhibitor, single point]
40 | CN1CCN(c2nc(-c3cccc([N+](=O)[O-])c3)nc3ccccc23)CC1 | inconclusive: 25.1 µM [inhibitor, single point]
41 | Cc1ccc(Nc2sc(C(=O)c3ccccc3)c(N)c2C(=O)Nc2ccc(Cl)cc2)cc1 | inconclusive: 39.8 µM [inhibitor, single point]
42 | S=C(NCC1CCCO1)N1CCN(c2nc(-c3ccc(Cl)cc3)cs2)CC1 (stereo not drawn) | inconclusive: 23.8 µM [inhibitor, partial curve, poor fit]

Row | Structure (SMILES) | Potency
43 | CCCn1c(N)c(C(=O)CSc2nc(C)cs2)c(=O)n(C)c1=O | inactive
44 | Cc1ccc(NC(=O)c2ccc(CN3CCN(C)CC3)cc2)cc1Nc1nccc(-c2cccnc2)n1 | inconclusive: 39.8 µM [inhibitor, single point]
45 | Cc1ccc(CNC(=O)CCCCCn2c(=O)c3sccc3n(CC(=O)Nc3ccc(C)c(F)c3)c2=O)cc1 | inactive
46 | CCN(CC)CCn1c2ccc(Cl)cc2c2nc(C)sc21 | inconclusive: 22.4 µM [inhibitor, single point]
47 | O=C(N/N=C/c1cc(Br)ccc1O)C(=O)Nc1ccccc1OC(F)(F)C(F)F | active: 3.16 µM
48 | c1ccc(N2CCN(c3nc(NCc4ccco4)c4ccccc4n3)CC2)cc1 | inconclusive: 31.6 µM [inhibitor, partial curve, poor fit]
49 | O=C(Cn1ncc2c1-c1ccccc1OC2)N1CCN(Cc2ccc3c(c2)OCO3)CC1 | inactive
50 | COc1ccc2ncccc2c1Cc1c(OC)ccc2ncccc12 | inconclusive: 20 µM [inhibitor, partial curve, poor fit]
51 | Oc1ccc(/C=N/n2c3ccccc3c3ccccc32)cc1 | inconclusive: 35.5 µM [inhibitor, partial curve, poor fit]
52 | O=C1N[C@@H](Cc2c[nH]c3ccccc23)COC(=O)[C@H](Cc2ccc(F)cc2)C/C=C\C[C@@H]1CC(=O)N(CCO)Cc1ccccc1 | inconclusive: 39.8 µM [inhibitor, partial curve, poor fit]
53 | Cc1cc(C)c2nc(N(CCCN(C)C)C(=O)c3ccc4c(c3)OCCO4)sc2c1 | inconclusive: 20 µM [inhibitor, partial curve, poor fit]
54 | Cc1ccc(C)c(N2CCN(C(=O)CCNS(=O)(=O)c3ccc4c(c3)CCN4C(=O)C3CC3)CC2)c1 | inconclusive: 28.2 µM [inhibitor, partial curve, poor fit]
55 | O=C(NC(c1ccccc1)c1ccc2ccccc2n1)C1CCN(Cc2cccc(C(F)(F)F)c2)CC1 (stereo not drawn) | inconclusive: 39.8 µM [inhibitor, single point]
56 | Cc1ccc(-c2cc(-c3coc4ccc(Cl)cc4c3=O)c3c(n2)-c2ccccc2OC3)cc1 | inactive
57 | Cn1c(C(=O)N2CCN(Cc3ccc4c(c3)OCO4)CC2)cc2sccc21 | inactive
58 | CCCc1cc(-c2n[nH]c(C)c2-c2ccc(C(=O)OCC)o2)c(O)cc1O | inconclusive: 39.8 µM [inhibitor, single point]
59 | CC(=O)Nc1ccc(C2C(=O)c3ccccc3C2=O)cc1 | inactive
60 | CC(=O)NC(Cc1ccccc1)C(=O)OCC(=O)c1ccc(Cl)cc1 (stereo not drawn) | inactive
61 | O=C(CN1CCCN(S(=O)(=O)c2ccc(Br)cc2)CC1)Nc1cccc(C(F)(F)F)c1 | inconclusive: 39.8 µM [inhibitor, single point]
62 | Cc1ccc(CN(C(=O)c2csnn2)C(C(=O)NC2CCCC2)c2ccc(C)o2)cc1 (stereo not drawn) | inconclusive: 39.8 µM [inhibitor, partial curve, poor fit]
63 | Cc1ccc(COCC(CC(C)C)N2CCN(C(=O)c3cccc(C(F)(F)F)c3)CCC2=O)cc1 (stereo not drawn) | inconclusive: 22.4 µM [inhibitor, partial curve, poor fit]
